Reference: US20260008835A1 (SHANGHAI REGENELEAD THERAPIES, published 2026)

T1: Human VEGF-A protein (human, UniProt P15692-4 27-191, limits assumed)
T1 sequence (looked up): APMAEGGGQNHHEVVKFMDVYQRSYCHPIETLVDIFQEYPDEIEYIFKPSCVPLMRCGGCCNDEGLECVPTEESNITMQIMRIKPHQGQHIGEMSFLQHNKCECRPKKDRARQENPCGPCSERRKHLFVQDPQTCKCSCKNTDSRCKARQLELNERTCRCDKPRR

T2: Human VEGF-B protein (human, UniProt P49765-2 22-188, limits assumed)
T2 sequence (looked up): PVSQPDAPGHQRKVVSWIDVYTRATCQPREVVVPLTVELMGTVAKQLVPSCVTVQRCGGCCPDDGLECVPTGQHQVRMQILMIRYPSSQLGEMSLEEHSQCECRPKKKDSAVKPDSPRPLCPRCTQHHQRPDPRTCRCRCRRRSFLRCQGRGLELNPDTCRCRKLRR

T3: Human VEGF-C protein (human, UniProt P49767 112-227, limits assumed)
T3 construct: Treated as one molecule; also called VEFG-C
T3 sequence (looked up): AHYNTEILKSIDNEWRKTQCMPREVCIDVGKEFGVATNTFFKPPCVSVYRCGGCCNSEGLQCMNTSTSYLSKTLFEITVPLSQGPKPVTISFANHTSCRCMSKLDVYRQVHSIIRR

B1: Aflibercept (PR1076) (Fc fusion)
chain: SDTGRPFVEMYSEIPEIIHMTEGRELVIPCRVTSPNITVTLKKFPLDTLIPDGKRIIWDSRKGFIISNATYKEIGLLTCEATVNGHLYKTNYLTHRQTNTIIDVVLSPSHGIELSVGEKLVLNCTARTELNVGIDFNWEYPSSKHQHKKLVNRDLKTQSGSEMKKFLSTLTIDGVTRSDQGLYTCAASSGLMTKKNSTFVRVHEK[human IgG1 Fc not printed]
notes: Positive control for VEGF-A; also called R1D2-R2D3-Fc
B2: PR1145 (R1D2-R2D3-linker-R2D2 (C162V)-R2D3 (S283T)-Fc) (Fc fusion)
chain: SDTGRPFVEMYSEIPEIIHMTEGRELVIPCRVTSPNITVTLKKFPLDTLIPDGKRIIWDSRKGFIISNATYKEIGLLTCEATVNGHLYKTNYLTHRQTNTIIDVVLSPSHGIELSVGEKLVLNCTARTELNVGIDFNWEYPSSKHQHKKLVNRDLKTQSGSEMKKFLSTLTIDGVTRSDQGLYTCAASSGLMTKKNSTFVRVHEKGGGGSSPFIASVSDQHGVVYITENKNKTVVIPCLGSISNLNVSLVARYPEKRFVPDGNRISWDSKKGFTIPSYMISYAGMVFCEAKINDESYQSIMYIVVVVGYRIYDVVLSPSHGIELSVGEKLVLNCTARTELNVGIDFNWEYPSSKHQHKKLVNRDLKTQSGTEMKKFLSTLTIDGVTRSDQGLYTCAASSGLMTKKNSTFVRVHEK[human IgG1 Fc with changes not printed]
B3: PR1150 (R1D2-R2D3-linker-R2D2 (C162V)-R2D3 (L313R)-Fc) (Fc fusion)
chain: SDTGRPFVEMYSEIPEIIHMTEGRELVIPCRVTSPNITVTLKKFPLDTLIPDGKRIIWDSRKGFIISNATYKEIGLLTCEATVNGHLYKTNYLTHRQTNTIIDVVLSPSHGIELSVGEKLVLNCTARTELNVGIDFNWEYPSSKHQHKKLVNRDLKTQSGSEMKKFLSTLTIDGVTRSDQGLYTCAASSGLMTKKNSTFVRVHEKGGGGSSPFIASVSDQHGVVYITENKNKTVVIPCLGSISNLNVSLVARYPEKRFVPDGNRISWDSKKGFTIPSYMISYAGMVFCEAKINDESYQSIMYIVVVVGYRIYDVVLSPSHGIELSVGEKLVLNCTARTELNVGIDFNWEYPSSKHQHKKLVNRDLKTQSGSEMKKFLSTLTIDGVTRSDQGLYTCAASSGRMTKKNSTFVRVHEK[human IgG1 Fc with changes not printed]
B4: PR1149 (R1D2-R2D3-linker-R2D2 (C162V/Y221S/R222K)-R2D3-Fc) (Fc fusion)
chain: SDTGRPFVEMYSEIPEIIHMTEGRELVIPCRVTSPNITVTLKKFPLDTLIPDGKRIIWDSRKGFIISNATYKEIGLLTCEATVNGHLYKTNYLTHRQTNTIIDVVLSPSHGIELSVGEKLVLNCTARTELNVGIDFNWEYPSSKHQHKKLVNRDLKTQSGSEMKKFLSTLTIDGVTRSDQGLYTCAASSGLMTKKNSTFVRVHEKGGGGSSPFIASVSDQHGVVYITENKNKTVVIPCLGSISNLNVSLVARYPEKRFVPDGNRISWDSKKGFTIPSYMISYAGMVFCEAKINDESYQSIMYIVVVVGSKIYDVVLSPSHGIELSVGEKLVLNCTARTELNVGIDFNWEYPSSKHQHKKLVNRDLKTQSGSEMKKFLSTLTIDGVTRSDQGLYTCAASSGLMTKKNSTFVRVHEK[human IgG1 Fc with changes not printed]
B5: PR1173 (R1D2-R2D3-linker-R2D2 (C162V/Y221S/R222K)-R2D3 (S283T)-Fc) (Fc fusion)
chain: SDTGRPFVEMYSEIPEIIHMTEGRELVIPCRVTSPNITVTLKKFPLDTLIPDGKRIIWDSRKGFIISNATYKEIGLLTCEATVNGHLYKTNYLTHRQTNTIIDVVLSPSHGIELSVGEKLVLNCTARTELNVGIDFNWEYPSSKHQHKKLVNRDLKTQSGSEMKKFLSTLTIDGVTRSDQGLYTCAASSGLMTKKNSTFVRVHEKGGGGSSPFIASVSDQHGVVYITENKNKTVVIPCLGSISNLNVSLVARYPEKRFVPDGNRISWDSKKGFTIPSYMISYAGMVFCEAKINDESYQSIMYIVVVVGSKIYDVVLSPSHGIELSVGEKLVLNCTARTELNVGIDFNWEYPSSKHQHKKLVNRDLKTQSGTEMKKFLSTLTIDGVTRSDQGLYTCAASSGLMTKKNSTFVRVHEK[human IgG1 Fc with changes not printed]
B6: PR1172 (R1D2-R2D3-linker-R2D2 (C162V/Y221S/R222K)-R2D3 (N274F)-Fc) (Fc fusion)
chain: SDTGRPFVEMYSEIPEIIHMTEGRELVIPCRVTSPNITVTLKKFPLDTLIPDGKRIIWDSRKGFIISNATYKEIGLLTCEATVNGHLYKTNYLTHRQTNTIIDVVLSPSHGIELSVGEKLVLNCTARTELNVGIDFNWEYPSSKHQHKKLVNRDLKTQSGSEMKKFLSTLTIDGVTRSDQGLYTCAASSGLMTKKNSTFVRVHEKGGGGSSPFIASVSDQHGVVYITENKNKTVVIPCLGSISNLNVSLVARYPEKRFVPDGNRISWDSKKGFTIPSYMISYAGMVFCEAKINDESYQSIMYIVVVVGSKIYDVVLSPSHGIELSVGEKLVLNCTARTELNVGIDFNWEYPSSKHQHKKLVFRDLKTQSGSEMKKFLSTLTIDGVTRSDQGLYTCAASSGLMTKKNSTFVRVHEK[human IgG1 Fc with changes not printed]

biological target: T1, Human VEGF-A protein; test: cell-based or functional assay

Row | VEGF-A IC50; VEGF-A-induced NFAT-RE-luc2P/KDR HEK293 reporter gene expression [pM] | Binder
1 | 760 | B1

biological target: T1, Human VEGF-A protein; test: cell-based or functional assay; remark: another data set of the same source

Row | VEGF-A IC50; VEGF-A-induced NFAT-RE-luc2P/KDR HEK293 reporter gene expression [pM] | Binder
2 | 500 | B1
3 | 920 | B2
4 | 810 | B3
5 | 820 | B4

biological target: T1, Human VEGF-A protein; test: cell-based or functional assay; remark: another data set of the same source

Row | VEGF-A IC50; VEGF-A-induced NFAT-RE-luc2P/KDR HEK293 reporter gene expression [pM] | Binder
6 | 720 | B1
7 | 1080 | B5
8 | 920 | B6

biological target: T1, Human VEGF-A protein; test: cell-based or functional assay; remark: another data set of the same source

Row | VEGF-A IC50; VEGF-A-induced NFAT-RE-luc2P/KDR HEK293 reporter gene expression [pM] | Binder
9 | 99 | B1
10 | 110 | B2

biological target: T1, Human VEGF-A protein; test: SPR (Biacore T200), binder captured on Protein A chip, VEGF as analyte, multi-cycle

Row | Kd [pM] | koff [s⁻¹] | kon [M⁻¹ s⁻¹] | Binder
11 | 8.18 | 8.46e-05 | 1.03e+07 | B1
12 | 45 | 9.87e-05 | 2.19e+06 | B2

biological target: T2, Human VEGF-B protein; test: as above

Row | Kd [pM] | koff [s⁻¹] | kon [M⁻¹ s⁻¹] | Binder
13 | 75.4 | 0.000114 | 1.51e+06 | B1
14 | 13.2 | 0.000271 | 2.05e+07 | B2

biological target: T3, Human VEGF-C protein; test: as above

Row | Kd [pM] | koff [s⁻¹] | kon [M⁻¹ s⁻¹] | Binder
15 | 28.4 | 7.98e-05 | 2.81e+06 | B2
